{
  "source": "PubChem BioAssay AID588855",
  "about": "(National Center for Advancing Translational Sciences (NCATS), 2011)",
  "note": "In all, about 410,000 compounds went through this assay and about 5,000 (1.2%) were called active. Inconclusive means that the source gave no clear call. Such entries were picked first, then a sample of the others. Calls come from the whole dose curve; as a rule, active = well fitted inhibition curve with a large enough effect; inconclusive = small, poorly fitted or top-dose-only effect; inactive = no such curve, though single readings can be large or run the other way. Potencies of inconclusive entries are doubtful fits and often do not repeat. % is set by controls: 0 for no effect and ±100 for the full control effect; potency is the fitted concentration of half-maximal effect; tags give direction and shape of the fitted curve.",
  "data": [
    {"experiment": "qHTS for Inhibitors of TGF-b; note: nearly all actives have a fitted effect of over 65% in size", "settings": "HepG2 CAGA-GFP TGF-b/SMAD3 reporter, GFP fluorescence, 18 h, TGF-beta stimulated, 500 pg/mL final; series mostly up to 46.1 µM; activity, negative = inhibition: at the top concentration", "how_it_was_run": "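HEPG2 CAGA-GFP, 1000 cells/well; 2 h settle, 37 C; cpd via pin tool; TGF-b 500 pg/mL final; 18 h, 37 C; GFP imaging ex488/em500-530; %Activity normalised to -TGF-b and +DMSO controls; CRC fit, curve class.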", "values": [
      {"compound": "Cc1cccc(-c2nc(Cn3c(SCc4cc(C)ccc4C)nc4ccncc43)c(C)o2)c1", "Potency": "inconclusive: 10 µM [inhibitor, partial curve]"},
      {"compound": "O=S(=O)(N1CCCCC1)N1CCN(c2cc(Cl)ccc2Cl)CC1", "Potency": "inconclusive: 35.5 µM [inhibitor, single point]"},
      {"compound": "O=C(NCc1ccccc1Cl)C1CCC(CNS(=O)(=O)c2ccc(Br)s2)CC1", "note": "(centres undefined)", "Potency": "inconclusive: 35.5 µM [inhibitor, single point]"},
      {"compound": "Cc1cc(C(=O)O)cc(Br)c1N", "activity, negative = inhibition": "inactive: 11.4%"},
      {"compound": "COc1cc(C2c3c(-c4ccccc4O)n[nH]c3C(=O)N2CCO)ccc1OCC(C)C", "note": "(centres undefined)", "Potency": "inconclusive: 11.2 µM [inhibitor, single point]"},
      {"compound": "CCN(CC)C(=O)c1nc[nH]c1C(=O)N1CCN(c2ccccc2)CC1", "Potency": "inconclusive: 2.51 µM [inhibitor, full curve]"},
      {"compound": "COc1ccc(NC(=O)c2oc3ccc(S(=O)(=O)N4CCC5(CC4)OCCO5)cc3c2C)cc1Cl", "activity, negative = inhibition": "inactive: -25.5%"},
      {"compound": "COc1cc2c(cc1OC)C(COc1ccccc1OC)N(C(C)=O)CC2", "note": "(centres undefined)", "activity, negative = inhibition": "inactive: 6.65%"},
      {"compound": "COc1ccccc1CNc1ncnc2cc(Cl)ccc12", "Potency": "inconclusive: 6.31 µM [inhibitor, single point]"},
      {"compound": "Cn1c(C(C#N)C(=O)c2ccco2)nc2ccccc21", "note": "(centres undefined)", "Potency": "inconclusive: 15.8 µM [inhibitor, single point]"},
      {"compound": "COc1ccc(/C=C2\\C(=O)N(c3c(Cl)cc(Cl)cc3Cl)N=C2NC(=O)c2cccc([N+](=O)[O-])c2)cc1", "activity, negative = inhibition": "inactive: 0.328%"},
      {"compound": "CC1(C(=O)NCc2ccccc2Br)CCN1C(=O)C1(c2ccc(Cl)cc2)CC1", "note": "(centres undefined)", "Potency": "inconclusive: 35.5 µM [inhibitor, single point]"},
      {"compound": "Cc1cccc(S(=O)(=O)Nc2ccc(-c3nc4ccc(C)cc4s3)cc2)c1", "Potency": "active: 12.6 µM"},
      {"compound": "Cc1cc(OCc2cc(C(=O)N3CCCCCC3)no2)cc(C)c1Cl", "Potency": "inconclusive: 25.1 µM [inhibitor, single point]"},
      {"compound": "O=C(COc1cccc2ccccc12)N1c2ccccc2CCc2ccccc21", "Potency": "inconclusive: 11.2 µM [inhibitor, single point]"},
      {"compound": "CCCCNC(=O)[C@@](CC)(ONc1ccccc1C(F)(F)F)c1cccc2ccccc12", "Potency": "inconclusive: 6.31 µM [inhibitor, single point]"},
      {"compound": "O=C(O)CSc1cccc2cccnc12", "Potency": "inconclusive: 11.2 µM [inhibitor, single point]"},
      {"compound": "O=C(CCCN1C(=O)c2ccccc2C1=O)Nc1ccc(Br)cn1", "Potency": "inconclusive: 0.501 µM [inhibitor, full curve, poor fit]"},
      {"compound": "Cc1ccc(C)c(CSc2cn(CCNC(=O)c3ccccc3F)c3ccccc23)c1", "Potency": "inconclusive: 10 µM [inhibitor, partial curve]"}
    ]}
  ]
}
